Molecular target: T1, oxMIF (recombinant human MIF immobilized into microwell plates, transforming MIF to oxMIF) (human, UniProt P14174 2-115)
T1 construct: also called immobilized MIF (oxMIF); immobilized oxMIF
Assay: ELISA on immobilized MIF (oxMIF), protein L-HRP detection, mean of triplicate
Description: Recombinant human MIF (1 μg/ml) diluted in PBS was immobilized into microwell plates (transforming MIF to oxMIF according to Thiele M. et al., 2015, J Immunol 2015; 195:2343-2352). After blocking, the bispecific antibodies were added to the plates at different concentrations. Bound bispecific antibodies were detected using protein L-HRP conjugate. Plates were developed by adding 3 3′5 5′tetramethylbenzidine (TMB) and chromogenic reaction was stopped with […]. OD was measured at 450 nm.
The binding curves of anti-oxMIF/CD3 bispecific antibodies C0061 and C0062 binding towards immobilized MIF (oxMIF) in an ELISA are depicted in FIG. 4. The monospecific anti-oxMIF antibody C0008 was used as positive control for oxMIF binding. EC50 values of the binding curves, which reflect rough KD estimates, were calculated by 4-parameter fit.

T1 sequence (P14174 2-115 limits assumed): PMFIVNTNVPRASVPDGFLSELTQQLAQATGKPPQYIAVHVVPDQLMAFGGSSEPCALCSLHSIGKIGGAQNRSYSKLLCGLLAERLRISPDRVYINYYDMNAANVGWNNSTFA

B1: C0062 (anti-oxMIF scFv and anti-CD3 scFv fused to Fc; scFv(oxMIF)-scFv(CD3)-Fc; (scFv)2-Fc) (bispecific antibody)
chain 1: DIQMTQSPSSLSASVGDRVTITCRSSQRIMTYLNWYQQKPGKAPKLLIFVASHSQSGVPSRFRGSGSETDFTLTISGLQPEDSATYYCQQSFWTPLTFGGGTKVEIKGGGGSGGGGSGGGGSEVQLLESGGGLVQPGGSLRLSCAASGFTFSIYSMNWVRQAPGKGLEWVSSIGSSGGTTYYADSVKGRFTISRDNSKNTLYLQMNSLRAEDTAVYYCAGSQWLYGMDVWGQGTTVTVSSGGGGS[human IgG1 Fc with changes cut from this listing]ASAWSHPQFEK
chain 2: QVQLVQSGAEVKKPGASVKVSCKASGYTFTRYTMHWVRQAPGQGLEWMGYINPSRGYTNYNQKFKDRVTLTTDKSSSTAYMELSSLRSEDTAVYYCARYYDDHYSLDYWGQGTLVTVSSGGSGGSGGSGGSGGSDIQMTQSPSSLSASVGDRVTITCSASSSVSYMNWYQQKPGKAPKRLIYDTSKLASGVPSRFSGSGSGTDFTLTISSLQPEDFATYYCQQWSSNPFTFGQGTKLEIKGGGGS[human IgG1 Fc with changes cut from this listing]AAAHHHHHH
notes: Monovalent for oxMIF and for CD3
- EC50: 24.7 nM

Reference: patent US20230045873A1 (ONCOONE RESEARCH AND DEVELOPMENT, published 2023)
